{
  "source": "PubChem BioAssay AID1345082",
  "about": "(National Center for Advancing Translational Sciences (NCATS), 2018)",
  "note": "Out of some 94,000 compounds screened, about 4,000 (4.3%) were called active. Inconclusive means that the source gave no clear call. Such entries were picked first, then a sample of the others. The call rests on the fitted dose curve; in most records, active means well fitted inhibition curve with a large enough effect; inconclusive means small, poorly fitted or top-dose-only effect; inactive means no such curve, though single readings can be large or run the other way. A potency beside an inconclusive call is a rough fit, not a confirmed value. Potency means the concentration at half of the fitted maximal effect; tags describe the fitted curve by direction and shape.",
  "data": [
    {"experiment": "Cytotoxic Profiling in NIH 3T3 Cell Line of Diverse Libraries Using Quantitative High-Throughput Screening; further: nearly all actives have a fitted effect of over 55% in size", "conditions": "NIH 3T3 viability, CellTiter-Glo ATP luminescence, 48-72 h; series mostly up to 96.7 µM", "procedure,_shortened": "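Luminescent ATP readout (CellTiter-Glo, 10 min RT) after 48 or 72 hr compound exposure of NIH 3T3 cells seeded at 400 cells/well in 1536-well format; quantitative HTS.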", "values": [
      {"smiles": "COc1cc2c(cc1-c1cccnc1)OCC(C)(C)CC2CO", "note": "(stereo not drawn)", "Potency": "inconclusive: 31.6 µM [inhibitor, partial curve, poor fit]"},
      {"smiles": "O=C1CC2(CCN(C(=O)c3ccccc3F)CC2)Oc2cc(Cl)ccc21", "Potency": "inconclusive: 39.8 µM [inhibitor, partial curve, poor fit]"},
      {"smiles": "COc1ccc(CC(=O)NC2CCCc3c2[nH]c2ccccc32)cc1", "note": "(stereo not drawn)", "Potency": "active: 31.6 µM"},
      {"smiles": "CCS(=O)(=O)N1CCCCC(NC(=O)c2scc3c2OCCO3)C1", "note": "(stereo not drawn)", "Potency": "inconclusive: 89.1 µM [inhibitor, partial curve, poor fit]"},
      {"smiles": "COc1cc(N2CCC(CO)(Cc3ccccc3C(F)(F)F)CC2)ncn1", "Potency": "inconclusive: 12.6 µM [inhibitor, full curve, poor fit]"},
      {"smiles": "COC(=O)C1=C(C)N=C2SC=C(CC(=O)NCC3CC3)N2C1c1cccc([N+](=O)[O-])c1", "note": "(stereo not drawn)", "Potency": "inactive"},
      {"smiles": "CC(C)(C)CN1CCOC[C@H]1c1ncc(-c2ccccc2)[nH]1", "Potency": "inconclusive: 126 µM [inhibitor, single point]"},
      {"smiles": "CN1CCCCCCN(C(=O)c2nccc3ccccc23)[C@H]2CCC[C@H]2C1=O", "Potency": "inactive"},
      {"smiles": "O=C(NCc1ccc(F)cc1)c1ccc2nnc(-c3cccc(C(F)(F)F)c3)n2c1", "Potency": "inconclusive: 14.1 µM [inhibitor, full curve, poor fit]"},
      {"smiles": "O=C(NCC1CN(C(=O)C2CCCCC2)CC12CCOCC2)N1CCCC1", "note": "(stereo not drawn)", "Potency": "inconclusive: 56.2 µM [inhibitor, partial curve, poor fit]"},
      {"smiles": "O=C(Cc1ccc(F)cc1)NC1CCN(c2ccnc3ccnn23)C1", "note": "(stereo not drawn)", "Potency": "inconclusive: 28.2 µM [inhibitor, partial curve]"},
      {"smiles": "CC(C)S(=O)(=O)CCNc1nccc(-c2cccnc2)n1", "Potency": "inactive"},
      {"smiles": "O=C(NCCOc1cccnc1)c1cn(Cc2cccc(C(F)(F)F)c2)nn1", "Potency": "inconclusive: 50.1 µM [inhibitor, partial curve, poor fit]"},
      {"smiles": "O=C(NC1CCN(Cc2ccc(-c3ccsc3)cc2)C1)c1ccccc1Cl", "note": "(stereo not drawn)", "Potency": "inconclusive: 28.2 µM [inhibitor, full curve]"},
      {"smiles": "CCCCC(=O)N1CCC2(CC1)SCC(=O)N2c1ccc(Cl)cc1", "Potency": "inactive"},
      {"smiles": "COc1ccccc1-c1cc(C(=O)NCc2c(C)cc(C)[nH]c2=O)c2c(c1)N(C)CCO2", "Potency": "inconclusive: 56.2 µM [inhibitor, partial curve, poor fit]"},
      {"smiles": "c1ccc2oc(N3CCN(Cc4ccc(-c5ccn[nH]5)o4)CC3)nc2c1", "Potency": "inconclusive: 50.1 µM [inhibitor, partial curve, poor fit]"},
      {"smiles": "COc1ccc(-c2ccc(NC(=O)c3cccc(Cl)c3)cc2)nn1", "Potency": "inactive"},
      {"smiles": "O=C(NC1CCN(c2cc(-c3ccc(F)cc3)[nH]n2)C1)c1cc(F)ccc1Cl", "note": "(stereo not drawn)", "Potency": "inconclusive: 50.1 µM [inhibitor, partial curve, poor fit]"},
      {"smiles": "Cc1cccc(N2CCN(C(=O)c3ccc4c(c3)N(C)C3CCCCN3C4=O)CC2)c1C", "note": "(stereo not drawn)", "Potency": "inconclusive: 50.1 µM [inhibitor, partial curve, poor fit]"},
      {"smiles": "COc1ccccc1C(=O)N1CCCC(n2cc(-c3nc(-c4ccccc4)no3)nn2)C1", "note": "(stereo not drawn)", "Potency": "inconclusive: 10 µM [inhibitor, full curve, poor fit]"},
      {"smiles": "CN1CCOc2c(C(=O)NCc3cccnc3)cc(-c3ccccc3)cc21", "Potency": "inconclusive: 56.2 µM [inhibitor, partial curve, poor fit]"},
      {"smiles": "CC(C)CCN1CCc2c(sc3ncnc(N4CCN(C)CC4)c23)C1", "Potency": "inactive"},
      {"smiles": "CC(C)(C)CC(=O)N1C[C@@H](CO)[C@@H]2Oc3ccc(Cl)cc3[C@@H]21", "Potency": "inconclusive: 50.1 µM [inhibitor, single point]"},
      {"smiles": "O=C(c1cccs1)C1CCCN(Cc2nc(CCc3ccccc3)no2)C1", "note": "(stereo not drawn)", "Potency": "inconclusive: 50.1 µM [inhibitor, partial curve, poor fit]"},
      {"smiles": "Cn1ccc2c(C(=O)NCCc3cnc[nH]3)nc(-c3ccc(N4CCOCC4)cc3)cc21", "Potency": "inconclusive: 89.1 µM [inhibitor, partial curve, poor fit]"},
      {"smiles": "O=C(c1cccnc1OC1CCN(S(=O)(=O)c2ccccc2)C1)N1CCCCC1", "note": "(stereo not drawn)", "Potency": "inactive"},
      {"smiles": "Cc1cccc(CNC(=O)c2c(C)noc2-c2cccs2)c1", "Potency": "inconclusive: 44.7 µM [inhibitor, partial curve, poor fit]"},
      {"smiles": "CC(C)C[C@@H]1N[C@H](C(=O)O)Cc2cn(CC3CC3)c3cccc1c23", "Potency": "inconclusive: 112 µM [inhibitor, single point]"},
      {"smiles": "CCc1ccc(NC(=O)CN2C(=O)NC3(CCC(C)CC3)C2=O)cc1", "note": "(stereo not drawn)", "Potency": "inconclusive: 44.7 µM [inhibitor, partial curve, poor fit]"},
      {"smiles": "Cc1nc(N2CCC(C(=O)NCc3cccc(Cl)c3)CC2)cc(C(F)(F)F)n1", "Potency": "inconclusive: 39.8 µM [inhibitor, partial curve, poor fit]"},
      {"smiles": "Cc1noc(C)c1C(=O)N1CC(N2C(=O)c3c(c(C)nn3-c3ccccc3)C2C(C)C)C1", "note": "(stereo not drawn)", "Potency": "inactive"},
      {"smiles": "CCc1nc2c(c(-c3ccc(Cl)cc3)n1)CN(Cc1cccc(F)c1)CC2", "Potency": "active: 11.2 µM"},
      {"smiles": "COc1ccc(OC)c(CNC(=O)C2CCN(c3cnc4nccnc4c3)CC2)c1", "Potency": "inconclusive: 70.8 µM [inhibitor, single point]"},
      {"smiles": "FC(F)(F)c1ccc(CN2CCn3c(nnc3-c3ccncc3)C2)cc1", "Potency": "inconclusive: 44.7 µM [inhibitor, partial curve, poor fit]"},
      {"smiles": "O=C(c1ccc(CCC2COc3ccccc3O2)cc1)N1CCCCC1", "note": "(stereo not drawn)", "Potency": "inconclusive: 50.1 µM [inhibitor, partial curve, poor fit]"},
      {"smiles": "Cn1cc(CN2CCOC[C@H]2c2ncc(-c3ccc(S(C)(=O)=O)cc3)[nH]2)c2ccccc21", "Potency": "active: 35.5 µM"},
      {"smiles": "COc1ccccc1NC(=O)Cn1c(N2CCc3ccccc3C2)nc(C)cc1=O", "Potency": "inconclusive: 44.7 µM [inhibitor, partial curve, poor fit]"},
      {"smiles": "O=C(NCc1cccs1)c1ccc2c(c1)N(C(=O)c1ccc(F)cc1)CC2", "Potency": "inconclusive: 44.7 µM [inhibitor, partial curve, poor fit]"},
      {"smiles": "COc1cc(OC)cc(C(=O)NC2CCN(c3cc(-c4ccc(F)cc4)[nH]n3)CC2)c1", "Potency": "active: 35.5 µM"},
      {"smiles": "Cc1ccccc1CN1CCC2OCCN(CCc3ccccc3)C(=O)C2C1", "note": "(stereo not drawn)", "Potency": "inconclusive: 100 µM [inhibitor, single point]"},
      {"smiles": "O=C1NCc2ccccc2CC12CCCN(Cc1cccc(OC(F)(F)F)c1)C2", "note": "(stereo not drawn)", "Potency": "inconclusive: 44.7 µM [inhibitor, partial curve, poor fit]"},
      {"smiles": "CC[C@H]1CN(C(=O)Nc2cccc(C(F)(F)F)c2)CC[C@H]1CC(=O)NCc1cccc2ccccc12", "Potency": "inactive"},
      {"smiles": "O=C(NC1CCCN(c2cc(-c3ccccc3)[nH]n2)C1)c1cccc(F)c1", "note": "(stereo not drawn)", "Potency": "inconclusive: 44.7 µM [inhibitor, partial curve, poor fit]"},
      {"smiles": "NCC(=O)NC1CC2(CCN(C(=O)Cc3ccc(O)cc3)CC2)c2ccccc21", "note": "(stereo not drawn)", "Potency": "inactive"},
      {"smiles": "Cc1noc2c(N3CC(O)C3)cc(-c3cccc(C(F)(F)F)c3)nc12", "Potency": "inconclusive: 39.8 µM [inhibitor, partial curve, poor fit]"},
      {"smiles": "O=C(C1CC=CC1)N1CCN(C(=O)N2CC3CC(C2)[C@H]2CCCC(=O)N2C3)CC1", "note": "(stereo partly drawn)", "Potency": "inactive"},
      {"smiles": "COCC1CCN(C(=O)C2CCCN(S(=O)(=O)c3cn(C)cn3)CCC(=O)NCC2)CC1", "note": "(stereo not drawn)", "Potency": "inactive"},
      {"smiles": "CN(C)CC1(O)CCC2(CCN(C(=O)CCC3CCCC3)CC2)CC1", "Potency": "inconclusive: 35.5 µM [inhibitor, partial curve]"},
      {"smiles": "O=C(c1ccc(F)cc1)N1CC(=O)N(C2CCC2)CC(O)C1", "note": "(stereo not drawn)", "Potency": "inconclusive: 56.2 µM [inhibitor, partial curve, poor fit]"},
      {"smiles": "O=C(NCCc1ccc(F)cc1)c1nc2cccnc2n(C2CC2)c1=O", "Potency": "inactive"},
      {"smiles": "Cc1ccc(-c2ccccc2CN2CCC(C(=O)N3CCOCC3)CC2)cc1Cl", "Potency": "inconclusive: 50.1 µM [inhibitor, partial curve, poor fit]"},
      {"smiles": "O=C(CC1CCCN(c2cnn(CC3CC3)c(=O)c2)C1)Nc1cccc(F)c1", "note": "(stereo not drawn)", "Potency": "active: 22.4 µM"},
      {"smiles": "CCCN1CCCCC12Cc1ccccc1CN(C(=O)c1c(C)noc1C)C2", "note": "(stereo not drawn)", "Potency": "active: 31.6 µM"},
      {"smiles": "COCCNC(=O)C[C@@H]1C[C@H]2O[C@H](CNC(=O)Nc3ccc(F)cc3)[C@@H](O)[C@H]2O1", "Potency": "inactive"},
      {"smiles": "COc1ccc(-c2cc(N3CCCC(NC(=O)c4nccc5ccccc45)C3)n[nH]2)cc1", "note": "(stereo not drawn)", "Potency": "inconclusive: 50.1 µM [inhibitor, partial curve, poor fit]"},
      {"smiles": "CCc1cccc(NC(=O)N2CCCC2c2nncn2C2CCCC2)c1", "note": "(stereo not drawn)", "Potency": "inconclusive: 35.5 µM [inhibitor, single point]"},
      {"smiles": "Cc1cccc(C(=O)N2C[C@@H](Oc3ccccc3)C[C@@H]2C(=O)N2CCOCC2)c1", "Potency": "inactive"},
      {"smiles": "CCCCCC(=O)N1CCC(O)(c2csc(CN(CC)CC)n2)CC1", "Potency": "inconclusive: 63.1 µM [inhibitor, partial curve, poor fit]"},
      {"smiles": "O=C1N(C2CCCCC2)C[C@H]2CN(Cc3ccc(F)cc3)CCN12", "Potency": "inconclusive: 56.2 µM [inhibitor, partial curve, poor fit]"},
      {"smiles": "CC(C)c1cccc(NC(=O)CN2C(=O)C(c3ccccc3)=NC23CCCC3)c1", "Potency": "inconclusive: 44.7 µM [inhibitor, partial curve, poor fit]"},
      {"smiles": "CC(C)c1ccc(CNC(=O)c2cc3n(n2)CC(c2ccc4c(c2)OCO4)OC3)cc1", "note": "(stereo not drawn)", "Potency": "inconclusive: 35.5 µM [inhibitor, partial curve]"},
      {"smiles": "CC(C)C[C@@H]1N[C@H](C(=O)NCCN(C)C)Cc2cn(Cc3ccccn3)c3cccc1c23", "Potency": "active: 28.2 µM"}
    ]}
  ]
}
